Measured values taken from PubChem BioAssay AID1794842 (National Center for Advancing Translational Sciences (NCATS), 2023).
Among all 2,800 compounds or so, fewer than 10 were called active. The call rests on the fitted dose curve; in most records, active means well fitted curve in the direction sought with a large enough effect; inconclusive means small, poorly fitted or top-dose-only effect, or another doubt; inactive means no such curve, though single readings can be large or run the other way. Some of the results follow.

biological target: Metallo-beta-lactamase type 2 (Klebsiella pneumoniae) (UniProt C7C422); test: qHTS to identify inhibitors of the New Delhi Metallo-beta-lactamase (NDM): Meropenem screen against the machine-based learning selections.; further: % of control where 0% means no effect; details: Purified NDM-1, meropenem hydrolysis, absorbance 300 nm; at 38.4 µM (top of the series) unless noted
Summary of the method: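 NDM-1 (2 nM final) in 50 mM HEPES pH 7.0, 1 uM Zn2SO4, 0.01% Tween20 was preincubated with compounds for >30 min. Nitrocefin (16.7 uM final) was read at 485 nm after 15 min, and meropenem (50 uM final) at 300 nm after 30 min.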

Sequence of UniProt C7C422 (C7C422 whole entry, looked up): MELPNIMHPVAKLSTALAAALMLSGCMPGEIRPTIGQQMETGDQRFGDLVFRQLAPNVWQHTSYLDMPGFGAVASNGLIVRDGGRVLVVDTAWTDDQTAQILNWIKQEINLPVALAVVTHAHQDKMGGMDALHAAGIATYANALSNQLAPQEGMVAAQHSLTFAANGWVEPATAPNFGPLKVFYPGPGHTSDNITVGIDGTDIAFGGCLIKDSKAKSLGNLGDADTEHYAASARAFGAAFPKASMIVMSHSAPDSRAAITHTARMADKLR

Activity change, negative = inhibition, inactive:
O=C(Cc1c[nH]c2ncc(-c3cccc(O)c3)cc12)N1CCOCC1 5.97% [at 57.5 µM], Cc1nc2ccc(C(=O)NCc3cc4n(n3)CCN(C(=O)N(C)C)C4)cc2o1 -0.171%, COc1cc2c(cc1CN1C[C@@H]3CC[C@H](C1)N(CC1CCC1)C3=O)OCCO2 -4.4%, CC(C)(C)c1ccc(NC(=O)O[C@@H]2CO[C@H]3[C@@H]2OC[C@@H]3Nc2nccc(-c3ccccc3)n2)cc1 0.647%, CCOC(=O)N1CCN(C(=O)C(c2ccccc2C)N(C)C)CC1 (stereo not drawn) 0.817%, O=C(O)C[C@@H]1CCN(C(=O)c2ccnc(Cl)c2)C[C@@H]1CCN1CCN(c2cccc(C(F)(F)F)c2)CC1 27.5%, COc1cc2c(cc1OC)C(C[C@H]1CN(C(=O)c3ccc(N(C)C)cc3)CC[C@H]1CC(=O)O)=NCC2 23.1%, CN(Cc1ccc(F)cc1)c1ccc2ncc(Nc3ccc(CCO)cc3)n2n1 66.1% [at 57.5 µM], OCc1ccc(-c2cc(-c3cccnc3)c3cncn3c2)cc1 17.5% [at 57.5 µM], O=C(c1ccccc1)N1CCC(c2nn(-c3ccccc3)c(=O)[nH]2)CC1 3.37%, COc1ccc2nc3n(c2c1)[C@@H](CNCc1ccccc1)COC3 4.42% [at 57.5 µM], CC(C)CN(C)C(=O)c1cc(-c2cnn(C(C)C)c2)nc2cc(F)ccc12 1.1%, O=C(CSc1ccncc1)N1CCN2C(=O)N(Cc3ccccc3)C(=O)[C@H]2C1 27.2% [at 57.5 µM], COc1ccc(NC(=O)Cn2c(N(C)Cc3ccccc3)nc(C)cc2=O)cc1Cl -1.01%, COCc1cc(=O)n(CC(=O)Nc2cccc(Cl)c2)c(N2CCOCC2)n1 0.573%, COc1ccc(CN(C)Cc2ccncc2C)c(OCC(O)CN2CCCC2)c1 (stereo not drawn) 1.89%, CN1CCOc2c(C(=O)NCc3cccnc3)cc(-c3ccccc3O)cc21 0.385% [at 57.5 µM], Cc1ccccc1-c1cnc2n[nH]c(-c3ccccc3)c2n1 2.04% [at 76.7 µM], C[S+](=O)([O-])Nc1cccc(Nc2ncc(-c3cccc(F)c3)c3c2OCC3)c1 3.1% [at 57.5 µM], COc1ccc(C[C@H](NC(=O)[C@@]2(O)C[C@@H](O)[C@H](O)[C@@H](NC(=O)CS(=O)(=O)c3ccccc3)C2)C(N)=O)cc1 -2.25%, Cc1ccc(C)c(-c2cc(C(=O)N3CCCC3c3nncn3C(C)C)[nH]n2)c1 (stereo not drawn) 4.81%, CS(=O)(=O)N1CCc2ccc(C(=O)NCCN3CCc4ccccc4C3)cc21 12.7%, O=C(Nc1cccc(C(F)(F)F)c1)c1cnc2c(c1)N(Cc1ccccc1)CCC2 2.2% [at 57.5 µM], OC1(CNCc2csc3ccc(Cl)cc23)CNCCOC1 (stereo not drawn) 6.85%, O=C1NC[C@@H](CCC(=O)N2CCc3ccccc32)N2C[C@@H](NCc3ccc(CO)o3)C[C@@H]12 -0.747%, CCCCCC(=O)Nc1nc2c(s1)C[C@@H]1[C@](C)(CO)[C@H](O)CC[C@@]1(C)[C@@H]2CC(=O)NCc1cc(F)cc(F)c1 -2.82%, CN1c2cccnc2CN(Cc2ccccn2)CC[C@H]1CO 7.37% [at 57.5 µM], O=C(C[C@@H]1O[C@H](CNC(=O)c2ccccc2)[C@@H](O)[C@H]1O)Nc1ccccc1 -2.83% [at 57.5 µM], O=C1NCC2(CCCN(C(=O)CCc3ccc(=O)[nH]n3)C2)O1 (stereo not drawn) 1.87%, CN1c2cc(C(=O)N3CCN(c4ccc(F)cc4)CC3)ccc2C(=O)N2CCCCCC21 (stereo not drawn) 1.01%, COc1ccnc(CN2CCC3(CC2)CN(CCOc2ccccc2)C(=O)O3)c1OC 0.0276%, CNC(=O)c1cc(-c2ccccc2O)cc2c1OCCN2Cc1cccnc1 -0.427% [at 57.5 µM], CC(c1ccc(-c2ccc(CC(=O)O)cn2)cc1)N1CCCCC1 (stereo not drawn) -1.23%, COCc1cc(C[C@@H]2CC[C@H](O)[C@@H](CNC(=O)C(C)(C)C)O2)no1 -0.975% [at 57.5 µM], CCOc1ccc2c(n1)CCN(C(=O)Nc1cc(C)cc(C)c1)C2 -2.06%, Cc1ccccc1-c1cc(O)c2c(c1)CNCCO2 0.257%, O=C1CC(c2ccccc2)N(C(=O)C2CC2)CCCN(C(=O)NCc2ccccc2)CCN1 (stereo not drawn) 0.78%, NC(=O)c1ccc(O[C@@H]2COCC[C@H]2NC(=O)Cc2ccc(O)cc2)cc1 -0.7%, O=C(Cc1c[nH]c2ncc(-c3cccnc3)cc12)NC1CC1 12.5% [at 76.7 µM], Cc1ccc2c(C)c(C(=O)N3CC[C@H](O)[C@@H](O)C3)oc2c1 9.82%, CN1CCCN(C[C@@H]2CN(C(=O)c3ccnn3C)C[C@@H]2CO)CC1 3.84%, COc1ccc(CN2CCNc3cc(Nc4ccccc4)ncc3C2)cc1O -0.934% [at 57.5 µM], O=C1CO[C@H](c2ccc(NC(=O)C3CCOCC3)cc2)[C@@H](CO)N1 1.11% [at 57.5 µM], Cc1nn(C)c2nc(-c3ccccn3)nc(NCc3ccc4c(c3)OCO4)c12 13.4%, Nc1ccc2ncnc(N3CCCCC3)c2c1 5.09%, COc1ccc(CNC(=O)CC[C@@H]2CNC(=O)[C@@H]3C[C@H](NCc4ccc(N(C)C)cc4)CN23)cc1 2.71%, Cc1nn(-c2ccccn2)c(C)c1[C@@H]1C=C[C@@H](NC(=O)c2ccco2)C1 1.96% [at 57.5 µM], O=C(Cc1ccccc1F)N1CCC(Oc2ncccc2C(=O)N2CCCCC2)C1 (stereo not drawn) -2.69%, Cc1cccc(CN2CCOc3c(O)cc(-c4ccccc4C)cc3C2)n1 1.08%, O=C(Cc1c[nH]c2ncc(-c3ccccc3)cc12)NCCCn1ccnc1 15.9% [at 57.5 µM], CNC1CCN(c2ccc(-c3nc(CCCc4ccccc4)no3)cn2)CC1 0.895%, CC(=O)N1CCN(C(=O)c2nc(-c3ccccc3)cs2)CC(O)C1 (stereo not drawn) -0.573%, CC1(CNC(=O)c2cccs2)CCOCC1 1.39%, Cc1nnc([C@H]2CCN(C3CCN(C)CC3)C2)o1 -0.195% [at 76.7 µM], Cc1ccc(S(=O)(=O)NC[C@H]2O[C@@H](CO)[C@@H](O)[C@H]2N2CCN(c3cccc(C(F)(F)F)c3)CC2)cc1 62.2%, CC(C)c1nc2c(c(-c3ccc(O)cc3)n1)CN(C(=O)c1ccccc1F)CC2 3.24%, CC(=O)N1CCC(N2CCC[C@H]2c2nc(-c3ccnc(N4CCC(C(N)=O)CC4)c3)no2)CC1 -1.74%, COCCNS(=O)(=O)c1cc(C(=O)O)cc(-c2ccncc2)c1 -0.536%, CCC(CC)C(=O)N1CCC(N2C(=O)C3(CCCCC3)C2c2ccncc2)CC1 (stereo not drawn) -0.67%, CSCC(=O)N1C[C@@H](NC(=O)Nc2ccc(F)cc2F)C[C@H]1C(=O)N[C@@H](Cc1cccs1)C(N)=O -0.0699%, CC1=C[C@@H](CNC(=O)COCC(=O)O)[C@H](C(C)C)C[C@H]1Cc1nc2ccccc2n1C 48.9% [at 57.5 µM], O=C(c1cc(-c2ccncc2)n[nH]1)N1CCC2(CC1)Nc1ccccc1NC2=O -3.79%, N#Cc1cccc(CN2CCOC[C@H]2c2ncc(-c3ccccc3)[nH]2)c1 0.887% [at 57.5 µM], CN1CCCn2nc(C(=O)NC34CC5CC(CC(C5)C3)C4)cc2C1 0.0618%, COCCCNc1ccc(C(=O)N2CCC(CN3CCCC3=O)CC2)cn1 -1.44%, Cc1[nH]c2c(c1C(=O)N1CCCC(CCc3ccc(F)cc3)C1)C(=O)CCC2 (stereo not drawn) 2.19%, Cc1ccc(NC(=O)N[C@@H]2C=C(C(=O)N[C@H](CC(C)C)C(N)=O)C[C@@H](O)[C@@H]2O)cc1 1.51% [at 57.5 µM], CN1[C@@H](CCC(=O)N2CCOCC2)CNC(=O)[C@@H]2[C@H]1CCN2Cc1cccc(OC(F)(F)F)c1 2.69%, Cc1ccc(C(c2cccnc2)n2cc(-c3cncnc3)nn2)cc1C (stereo not drawn) 1.32%, CCC1(N2CCN(C(=O)CCc3c[nH]c4ccccc34)CC2)CCN(C(=O)NC)C1 (stereo not drawn) 1.71%, COCc1noc(CC2CCOC3(CCN(C(=O)NC4CCCCC4)CC3)C2)n1 (stereo not drawn) 4.67%, CCN(C(=O)Cn1nc2n(c1=O)CCCCC2)c1ccccc1 0.922%, Cc1cccc(CC(C)NC(=O)c2ccc3nc(Cc4ccccc4F)oc3c2)n1 (stereo not drawn) -0.964%, COCC(=O)Nc1nc2c(s1)C[C@@H]1[C@](C)(CO)[C@H](O)CC[C@@]1(C)[C@@H]2CC(=O)NCc1cccnc1 2.68%, c1coc(CN[C@H]2CO[C@H]3[C@@H]2OC[C@@H]3n2nnnc2Oc2ccc(-n3cncn3)cc2)c1 0.401%, COCCNC(=O)CC[C@]12CC[C@](C)(O)C[C@H]1C(C)(C)C[C@@H]2NC(=O)c1ccc(C(F)(F)F)cc1 0.156%, O=C(NCc1ccc(F)cc1)c1cc(-c2ccc[nH]2)n[nH]1 1.45%, Cc1noc(-c2ccc(OC3CN(C(=O)CCCc4ccccc4)C3)cc2)n1 0.774%
